# According to paper PMC4336329 (PLoS ONE, 2015):
# Out of some 310,000 compounds screened, about 14,000 (4.5%) showed an effect of 50% or more. The effect is printed as a negative number. The list shows a part of the results.
# Biological target: human ether-à-go-go-related gene (hERG) potassium channel (human, UniProt Q12809)
# Experiment: primary screen, population patch clamp on CHO cells stably expressing hERG
# 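Further: peak tail current of the secondary pulse compared with the same well before compound.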
# Sequence of human ether-à-go-go-related gene (hERG) potassium channel (Q12809 whole entry, looked up): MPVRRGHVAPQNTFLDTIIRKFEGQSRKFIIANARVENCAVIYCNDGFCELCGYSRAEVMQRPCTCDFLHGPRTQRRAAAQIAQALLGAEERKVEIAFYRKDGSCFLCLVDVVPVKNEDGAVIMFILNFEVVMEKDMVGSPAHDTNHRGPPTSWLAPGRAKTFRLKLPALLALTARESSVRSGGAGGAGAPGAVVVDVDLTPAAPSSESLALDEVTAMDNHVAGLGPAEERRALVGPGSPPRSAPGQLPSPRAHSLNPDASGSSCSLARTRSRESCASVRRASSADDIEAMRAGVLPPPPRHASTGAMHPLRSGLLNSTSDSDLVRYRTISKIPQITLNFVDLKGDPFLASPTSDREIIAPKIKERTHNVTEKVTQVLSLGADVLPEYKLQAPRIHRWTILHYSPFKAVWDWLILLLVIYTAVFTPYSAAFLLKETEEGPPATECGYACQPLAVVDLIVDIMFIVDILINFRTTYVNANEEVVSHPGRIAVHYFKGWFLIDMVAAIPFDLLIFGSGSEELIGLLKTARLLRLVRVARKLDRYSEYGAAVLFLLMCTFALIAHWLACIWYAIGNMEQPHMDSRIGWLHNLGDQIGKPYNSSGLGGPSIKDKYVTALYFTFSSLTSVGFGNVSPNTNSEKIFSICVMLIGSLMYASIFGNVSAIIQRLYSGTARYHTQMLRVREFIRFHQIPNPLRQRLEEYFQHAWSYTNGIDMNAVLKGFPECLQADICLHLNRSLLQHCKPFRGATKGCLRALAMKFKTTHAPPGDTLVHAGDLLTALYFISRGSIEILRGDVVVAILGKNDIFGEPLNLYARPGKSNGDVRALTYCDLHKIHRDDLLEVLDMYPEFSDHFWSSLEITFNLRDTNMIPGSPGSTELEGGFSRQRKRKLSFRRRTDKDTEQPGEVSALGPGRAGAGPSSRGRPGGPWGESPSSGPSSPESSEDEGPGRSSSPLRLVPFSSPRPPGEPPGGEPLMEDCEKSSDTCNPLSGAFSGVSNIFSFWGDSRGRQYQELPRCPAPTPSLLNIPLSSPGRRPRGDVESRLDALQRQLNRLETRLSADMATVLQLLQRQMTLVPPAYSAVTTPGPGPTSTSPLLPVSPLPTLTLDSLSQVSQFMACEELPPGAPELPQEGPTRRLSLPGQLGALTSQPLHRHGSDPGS
row,Compound,"hERG current change (%, negative = inhibition) at 10uM [%]"
1,CC(=O)c1cccc(N2C(=O)Nc3ccccc3N2O)c1,17
2,O=C(CSc1nnc(Cc2ccccc2)o1)NCCN1C(=O)CSC1=O,10.7
3,Clc1cccc(/C=N/Nc2nc(Cl)nc3ccccc23)c1,-12.7
4,Cc1cccc(C)c1NC(=O)CNC(=O)c1c(C)nn(-c2ccccc2)c1Cl,-16.7
5,COc1ccc(NC(=O)CSc2nnc(-c3ccccn3)n2N)cc1Cl,-2.27
6,COC(=O)[C@H](CCSC)NC(=O)Nc1ccc(OC)c(Cl)c1,-6.64
7,COc1ccc(C)cc1S(=O)(=O)NC(C)c1cnn(-c2ccccn2)c1C (centres unmarked),0.876
8,O=C(COC(=O)c1cc(S(=O)(=O)N2CCOCC2)ccc1F)Nc1c(Cl)cccc1C(F)(F)F,5.27
9,CCOC(=O)CN1C(=O)/C(=C/c2ccccc2Br)Oc2ccccc21,15.8
10,CC(=O)Nc1ccc(NC(=O)CNS(=O)(=O)c2ccc(C)cc2)cc1,-7.94
11,CC(=O)N/C(=C\c1ccccc1)C(=O)NC(C)C(=O)O (centres unmarked),22.4
12,COC(=O)c1ccsc1NC(=O)c1ccccc1,-3.27
13,CCN(Cc1ccccc1)S(=O)(=O)c1ccc(C(=O)N(CCCN(C)C)c2nc3c(F)cccc3s2)cc1.Cl,-66.3
14,O=C(COC(=O)c1ccccn1)Nc1nc(-c2cccc([N+](=O)[O-])c2)cs1,-5.17
15,COc1ccccc1-n1c(SCC(=O)NC(C)(C)C)nc(O)cc1=O,2.42
16,Nc1nnc(SCc2ccc([N+](=O)[O-])cc2)s1,-27.3
17,COCOc1ccc(/C=C/C(=O)c2c(O)cc(OCOC)cc2OCOC)cc1,8.63
18,N#C/C(=C(/O)c1ccc(Cl)c([N+](=O)[O-])c1)c1nc2ccccc2[nH]1,10.6
19,CC(=O)COc1cccc2ccc(/C=C/c3ccc(Br)s3)nc12,-0.183

row,Compound,"hERG current change (%, negative = inhibition) at 10uM [%]"
1,Cc1ccc(OCCCC(=O)Nc2nncs2)cc1,8.97
2,O=C(COC(=O)[C@H](Cc1ccccc1)NC(=O)c1ccco1)NCc1ccccc1,-10
3,CCCCOC(=O)Nc1ccc(C)c(Cl)c1,2.24
4,CSc1nc(/C=C2\C=Nc3ccccc32)c(O)n1C,-11.4
5,COc1ccc2c(c1)C(=O)C(=O)N2CCS(=O)(=O)c1ccccc1,9.33
6,Cc1ccc(S(=O)(=O)N2CCCCC2)cc1NC(=O)c1ccc(Cl)nc1,-21.5
7,Cc1nc(-c2ccc(NC(=O)Cc3ccccc3)cc2)cs1,21.1
8,CCOC(=O)c1[nH]cnc1C(=O)Nc1ccc(F)cc1,-1.62
9,Cc1onc(-c2ccccc2)c1C(=O)OCCOc1ccccc1F,8.09
10,O=C(Nc1cccc2ccccc12)C1CCN(C(=O)NCc2ccccc2)CC1,6.5
11,O=C(NCCc1ccccc1C(F)(F)F)C1CCC(=O)N(C2CC2)C1 (centres unmarked),3.04
12,CS(=O)(=O)NCCCNc1ccc(Cl)cc1[N+](=O)[O-],-25.6
13,Clc1ccccc1N1CCN(Cc2ccc(Br)o2)CC1,7.14
14,CSc1cc(C)[nH]c(=O)n1,7.05
15,O=C(c1ccco1)N1CCN(c2nc(C(F)(F)F)nc3c2nnn3Cc2ccccc2)CC1,-15.2
16,CCCc1cc(=O)[nH]c(Nc2ccc(N3CCCCC3)cc2)n1,-38.6
17,COc1cc(OC)c(NC(=S)Nc2cccc(C(C)=O)c2)cc1Cl,6.61
18,O=C(/C=C/c1ccccc1)NC(=S)Nc1ccccc1C(=O)NC1CCCCC1,3.99
19,CCOCCCNC(=O)c1ccc(C2SCC(=O)N2Cc2ccccc2)cc1 (centres unmarked),4.12

row,Compound,"hERG current change (%, negative = inhibition) at 10uM [%]"
1,CCCC(=O)OC1CC(C)N(C(=O)c2ccccc2)c2ccc(C)cc21 (centres unmarked),-25.5
2,O=C(NC(=S)Nc1ccccc1N1CCN(C(=O)c2ccccc2)CC1)c1cccs1,9.73
3,O=C(NCc1ccccn1)c1cccc(NS(=O)(=O)c2ccc(Br)cc2)c1,-19.8
4,COc1ccccc1CN1C[C@@H]2C[C@@H](c3ccccc3OC)N3CCC[C@@]23C1=O,-14
5,CC(Oc1ccccc1)C(=O)NC1C(=O)N2C1SC(C)(C)C2C(=O)[O-].[K+] (centres unmarked),35.9
6,COc1cccc(-n2nnc3c(=O)n(Cc4ccc(C)cc4)cnc32)c1,9.97
7,Cc1cc(NC(=O)CCC(=O)N(Cc2ccco2)C2(C(=O)NC3CCCCC3)CCCCC2)no1,-6.99
8,Cc1cc(NC(=O)Cn2nc([N+](=O)[O-])c(Br)c2C)no1,8.77
9,CCCCOC(=O)C1CN(c2ccccc2)N=C1C(C)=O (centres unmarked),12.9
10,CCCC1(C(=O)OC)NC(c2ccco2)C2C(=O)N(c3ccc(C)cc3)C(=O)C21 (centres unmarked),10.2
11,Cc1ccc(Nc2cc(C)nc3ncnn23)c(C)c1,15.1
12,O=C(Nc1ccccc1)Nc1nnc(-c2cccs2)s1,10.1
13,Cc1ccccc1C(=O)NC1CCN(Cc2nnnn2C2CCCC2)CC1,3.85
14,O=C(CN(C(=O)CNC(=O)c1cccs1)c1ccc2c(c1)OCCO2)NC1CCCC1,-16.9
15,CCN(CC)c1ccc(C2NC(=O)NC(C)=C2C(=O)Nc2ccccc2)cc1 (centres unmarked),5.48
16,Cl.NC(Cc1ccc2nsnc2c1)C(=O)O (centres unmarked),5.45
17,O=C(C1CCC(=O)N(C2CCCC2)C1)N1CCC(Oc2cccc(F)c2)CC1 (centres unmarked),-6.61
18,COC(=O)c1[nH]c(C)c(/C(O)=C2\C(=O)C(=O)N(CCN3CCOCC3)C2c2ccco2)c1C (centres unmarked),15.6
